Test results: PubChem BioAssay (Tox21)
Inconclusive results, whose numbers are uncertain, are shown with a selection of clear calls. Potencies of inconclusive entries are left out as doubtful fits. Calls of active or inactive are those of the source. The call rests on the fitted dose curve; in most records, active means well fitted inhibition curve with a large enough effect in the signal ratio in the repeat runs (not every such curve was filed as active); inconclusive means weak or mixed curves, or effect the other way; inactive means no such curve, though single readings can be large or run the other way; the % refers to the signal ratio.
On the % scale 0 is the no-effect control and ±100 the full control effect; potency means the concentration at half of the fitted maximal effect; tags describe the fitted curve by direction and shape.

What follows are compounds tested against Androgen receptor (Homo sapiens) (UniProt P10275) (assay: qHTS assay to identify small molecule antagonists of the androgen receptor (AR) signaling pathway (AID 743035)). Details: HEK293 AR-UAS-bla, R1881-stimulated, beta-lactamase FRET, 16 h; activity change, negative = inhibition: at 58.5 µM (top of the series) unless noted.
Chain of UniProt P10275 (P10275 whole entry, looked up): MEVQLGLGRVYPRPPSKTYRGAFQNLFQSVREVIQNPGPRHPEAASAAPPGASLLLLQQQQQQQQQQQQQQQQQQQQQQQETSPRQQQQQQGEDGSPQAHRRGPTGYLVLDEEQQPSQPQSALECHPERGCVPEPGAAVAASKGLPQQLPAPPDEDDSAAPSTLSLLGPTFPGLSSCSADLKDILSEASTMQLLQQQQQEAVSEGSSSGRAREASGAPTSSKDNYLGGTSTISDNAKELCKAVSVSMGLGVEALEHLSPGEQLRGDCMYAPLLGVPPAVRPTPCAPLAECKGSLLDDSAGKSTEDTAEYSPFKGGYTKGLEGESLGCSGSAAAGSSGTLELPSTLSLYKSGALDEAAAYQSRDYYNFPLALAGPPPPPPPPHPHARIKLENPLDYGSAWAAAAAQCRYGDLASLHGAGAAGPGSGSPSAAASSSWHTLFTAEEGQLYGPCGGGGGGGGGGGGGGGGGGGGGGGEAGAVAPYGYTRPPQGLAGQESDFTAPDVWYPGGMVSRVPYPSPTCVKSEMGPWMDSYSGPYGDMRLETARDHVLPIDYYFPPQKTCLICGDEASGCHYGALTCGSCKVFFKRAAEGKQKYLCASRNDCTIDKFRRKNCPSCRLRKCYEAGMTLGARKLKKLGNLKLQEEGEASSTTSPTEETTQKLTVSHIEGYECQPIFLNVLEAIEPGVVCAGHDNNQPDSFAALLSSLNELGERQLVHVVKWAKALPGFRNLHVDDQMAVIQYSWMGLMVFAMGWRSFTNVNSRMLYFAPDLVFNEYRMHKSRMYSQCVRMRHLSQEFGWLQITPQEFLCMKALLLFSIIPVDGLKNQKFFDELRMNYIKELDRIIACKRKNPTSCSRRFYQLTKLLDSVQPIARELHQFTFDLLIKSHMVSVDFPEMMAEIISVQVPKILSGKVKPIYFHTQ
From the text: National Center for Advancing Translational Sciences [NCATS]
NIH Chemical Genomics Center [NCGC]
U.S. Environmental Protection Agency [EPA]
National Institutes of Environmental Health Sciences [NIEHS]
National Toxicology Program [NTP]
U.S. Food and Drug Administration [FDA]
Androgen receptor (AR), a nuclear hormone receptor, plays a critical role in AR-dependent prostate cancer and other androgen related diseases. Endocrine disrupting chemicals (EDCs) and their interactions with steroid hormone receptors like AR may cause disruption of normal endocrine function as well as interfere with metabolic homeostasis, reproduction, developmental and behavioral functions. To identify the compounds that inhibit AR signaling, GeneBLAzer AR-UAS-bla-GripTite cell line (Invitrogen, Carlsbad, CA, USA) containing a beta-lactamase reporter gene under control of an Upstream Activator Sequence (UAS) stably integrated into HEK293 cells was used to screen the Tox21 10K compound library.
Tox21 Assay Protocol Summary:
AR-bla cells were dispensed at 2,000 cells/5 uL of assay medium per well into black wall/clear-bottom 1536-well plates using a Multidrop Combi (ThermoFisher Scientific, Waltham, MA) dispenser. After the assay plates were incubated at a 37C and 5% CO2 for 4 hr, 23 nL of compounds dissolved in DMSO, positive controls or DMSO only was transferred to the assay plate by a Pintool station (Kalypsys, San Diego, CA), followed by addition of 1 uL of agonist (R1881) in culture medium using a Bioraptr Flying Reagent Dispenser (FRD) workstation (Beckman Coulter, Indianapolis, IN, USA). The plates were incubated at a 37C and 5% CO2 for 16 h. After 1 uL of LiveBLAzerTM B/G FRET substrate was added using a Bioraptr FRD, the plates were incubated at room temperature for 2 h and fluorescence intensity was measured by an Envision plate reader (PerkinElmer, Shelton, CT).
`CCOC(=O)c1c[nH]c2cc(OCC(C)C)c(OCC(C)C)cc2c1=O` was tested, and the activity change, negative = inhibition was inconclusive: 0.502%.
In the case of `COc1ccc(C)cc1N`, the Potency is reported as “inactive”.
For `CCCN(C1CCN(C(=O)C2CCNCC2)CC1)[C@@H]1CCc2ccc(OC)cc2C1`, the Potency was inconclusive.
In the case of `O=C(O)CN(CC(=O)O)CC1=CC2C(=CC1=O)Oc1cc(O)c(CN(CC(=O)O)CC(=O)O)cc1C21OC(=O)c2ccccc21` (stereo not given), the Potency is reported as inconclusive [rising, partial curve].
`COc1ccc(/C=N/NC(=O)c2ccncc2)cc1OC` was tested, and the “activity change, negative = inhibition” value was inactive: -8.04%.
For `C=C1CC[C@H](O)CC1=C/C=C1\CCC[C@]2(C)[C@@H]([C@H](C)CC[C@@H](O)C(C)(C)O)CC[C@@H]12`, the activity change, negative = inhibition was inconclusive: -57.9%.
With `Cc1cccc(C)c1Nc1ncccc1C(=O)O` the Potency was inconclusive [rising, partial curve].
`O=C(NOC[C@H](O)CO)c1ccc(F)c(F)c1Nc1ccc(I)cc1F` was tested, and the activity change, negative = inhibition was inconclusive: -30.8%.
In the case of `COCCOCCOC`, the activity change, negative = inhibition is reported as inconclusive: 10.6%.
`C[C@]12O[C@H](C[C@]1(O)CO)n1c3ccccc3c3c4c(c5c6ccccc6n2c5c31)CNC4=O` was tested, and the Potency was inconclusive [rising, partial curve, poor fit].
For `Cc1cc2nc3c(=O)[nH]c(=O)nc-3n(C[C@H](O)[C@H](O)[C@H](O)COP(=O)(O)OP(=O)(O)OC[C@H]3O[C@@H](n4cnc5c(N)ncnc54)[C@H](O)[C@@H]3O)c2cc1C`, the Potency was inconclusive.
For `COc1ccc(C(C)=O)cc1`, the “activity change, negative = inhibition” value was inactive: 9.19% [at 78.9 µM].
`COC(=O)C1=C(C)NC(C)=C(C(=O)O[C@H]2CCN(Cc3ccccc3)C2)[C@H]1c1cccc([N+](=O)[O-])c1` was tested, and the Potency was active: 26.8 µM.
In the case of `CC(C)CN(C[C@@H](O)[C@H](Cc1ccccc1)NC(=O)O[C@@H]1CCOC1)S(=O)(=O)c1ccc(N)cc1`, the Potency is reported as active: 26.8 µM.
With `CC(=O)O[C@]1(C(C)=O)CC[C@H]2[C@@H]3CCC4=CC(=O)CC[C@]4(C)[C@@]3(F)[C@@H](O)C[C@@]21C` the Potency was active: 8.49 µM.
With `C[C@]12CC[C@@H]3c4ccc(OC(=O)c5ccccc5)cc4CC[C@H]3[C@@H]1CC[C@@H]2O` the Potency was inconclusive [falling, full curve].
`C[N+](C)(C)CCOP(=O)(O)OP(=O)([O-])OC[C@H]1O[C@@H](n2ccc(N)nc2=O)[C@H](O)[C@@H]1O` was tested, and the Potency was “inactive”.
In the case of `O=C(CN1CCN(Cc2ccc3c(c2)OCO3)CC1)N1c2ccccc2Sc2ccccc21`, the Potency is reported as active: 26.8 µM.
With `C=CCn1c(=O)n([C@@H]2O[C@H](CO)[C@@H](O)[C@H]2O)c2nc(N)[nH]c(=O)c21` the “activity change, negative = inhibition” value was inactive: 5.17%.
With `O=C1C(=O)c2ncccc2-c2cccnc21` the Potency was active: 23.9 µM.
`CCN1CCCC1CNC(=O)c1cc(S(=O)(=O)CC)ccc1OC` (stereo not given) was tested, and the activity change, negative = inhibition was inconclusive: -2.36%.
With `O=C(O)c1ccncc1` the “activity change, negative = inhibition” value was inactive: 7.82% [at 78.9 µM].
In the case of `O=C(NCN1CCOCC1)c1cnccn1`, the “activity change, negative = inhibition” value is reported as inactive: 3.69%.
With `Nc1ccc(F)cc1F` the “activity change, negative = inhibition” value was inactive: -2.09% [at 78.9 µM].
In the case of `N=C(N)c1ccc2cc(OC(=O)c3ccc(N=C(N)N)cc3)ccc2c1`, the activity change, negative = inhibition is reported as inconclusive: -59.5%.
In the case of `O=C(O)CCSCCC(=O)O`, the activity change, negative = inhibition is reported as inconclusive: 6.6%.
For `CCC[C@@H]1C[C@@H](C(=O)N[C@@H]([C@H]2O[C@H](SC)[C@H](OP(=O)(O)O)[C@@H](O)[C@H]2O)[C@H](C)Cl)N(C)C1`, the activity change, negative = inhibition was inconclusive: 8.28%.
For `CC1=C(/C=C/C(C)=C/C=C/C(C)=C/C=C/C=C(C)/C=C/C=C(C)/C=C/C2=C(C)C[C@@H](O)CC2(C)C)C(C)(C)C[C@H](O)C1`, the Potency was inconclusive.
In the case of `CN[C@H]1CCc2cc(OC)c(OC)c(OC)c2-c2ccc(OC)c(=O)cc21`, the Potency is reported as active: 0.0601 µM.
With `CCN(CC)Cc1cc(Nc2ccnc3cc(Cl)ccc23)ccc1O` the Potency was inconclusive [rising, partial curve, poor fit].
With `N#Cc1ccc2c(c1)N(CCCN1CCC(O)CC1)c1ccccc1S2` the activity change, negative = inhibition was inconclusive: -1.46%.
In the case of `COc1ccc(-c2noc(CC(=O)O)c2-c2ccc(OC)cc2)cc1`, the activity change, negative = inhibition is reported as inconclusive: 16.5%.
For `O=P(O)(O)OC(Cn1cncn1)(Cn1cncn1)c1ccc(F)cc1F`, the “activity change, negative = inhibition” value was inactive: 4.11%.
With `COc1ccc(/C=C/C(=O)Nc2ccccc2C(=O)O)cc1OC` the Potency was inconclusive [rising, single point].
In the case of `CN=C1C=CC(=C(c2ccc(N(C)C)cc2)c2ccc(N(C)C)cc2)C=C1`, the Potency is reported as inconclusive [falling, full curve, poor fit].
`CC(=O)O[C@H]1C(=O)[C@@]2(C)[C@H]([C@H](OC(=O)c3ccccc3)[C@]3(O)C[C@H](OC(=O)[C@H](O)[C@@H](NC(=O)c4ccccc4)c4ccccc4)C(C)=C1C3(C)C)[C@]1(OC(C)=O)CO[C@@H]1C[C@@H]2O` was tested, and the Potency was active: 0.0169 µM.
For `C[C@@H]1C[C@H]2C3C[C@H](F)C4=CC(=O)C=CC4(C)[C@@]3(F)[C@@H](O)CC2(C)[C@@]1(O)C(=O)COC(=O)C(C)(C)C` (stereo not given in full), the “activity change, negative = inhibition” value was inactive: -19.4%.
With `CC(CN1CC(=O)NC(=O)C1)N1CC(=O)NC(=O)C1` (stereo not given) the activity change, negative = inhibition was inconclusive: -1.47%.
In the case of `CCC(C)(Oc1ccc(C2(c3ccc(OC(C)(CC)C(=O)O)cc3)CCCCC2)cc1)C(=O)O` (stereo not given), the “activity change, negative = inhibition” value is reported as inactive: -27.8%.

Same assay, conditions: HEK293 AR-UAS-bla, R1881-stimulated, beta-lactamase FRET, 16 h; at 58.5 µM (top of the series)
With `COCCOCCOC` the activity change, negative = inhibition was inactive: 2%.
